Assay results published in article PMC5892938.
The other results are listed elsewhere or left out. At the low end of the ranking the order means little.

Target: GST-SBP-SLBP (stem-loop binding protein) (UniProt Q14493)
Test: targeted RNA Bind-n-Seq;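 note: DESeq read counts versus GST-SBP nonspecific binding control pulldown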
Conditions: RBNS binding buffer: 25 mM Tris pH 7.5, 150 mM KCl, 3 mM MgCl2, 0.1% Tween, 0.5 mg/mL BSA, 1 mM DTT; 27 nM protein, 750 pM RNA pool; temperature not stated; high values mean tight binding

Sequence	binding signal (log2 fold change)
GGUCACGUCUCAAUCAACUCCUCAGAGGGGGGGAAAACCCCUUUACCCUCCACUUCAACAGCUCGCAGUCAAG	-0.154
GGUCACGUCUCAAUCAACUCACAAGAGGGGGGGAAAACCCCUUUGCCCUCAUAUUCAACAGCUCGCAGUCAAG	0.259
GGUCACGUCUCAAUCAACUCUUCUCCAGGAGUUUUCUCCUGUUUUCUCAACAGCUCGCAGUCAAG	0.174
GGUCACGUCUCAAUCAACUCAACUCCAGGAGUUUCCUCCUGCAAACUCAACAGCUCGCAGUCAAG	-0.00479
GGUCACGUCUCAAUCAACUCUUUUCCCAGGGAAACCCCUGGUUAUGUCAACAGCUCGCAGUCAAG	0.0043
GGUCACGUCUCAAUCAACUCAGUCUCCAGGGAAAGCCCUGGCAUUUUCAACAGCUCGCAGUCAAG	-0.0389
GGUCACGUCUCAAUCAACUCUUUCUCAGGAGUUUUCUCCUGCUUACUCAACAGCUCGCAGUCAAG	0.0264
GGUCACGUCUCAAUCAACUCUCUAGAGGGGGGGAAAACCCCUUUGCCCUCCACAUCAACAGCUCGCAGUCAAG	0.07
GGUCACGUCUCAAUCAACUCAUCUUCCAGGGAAAACCCUGGCUUUUUCAACAGCUCGCAGUCAAG	-0.0327
GGUCACGUCUCAAUCAACUCUUCCUCAGGAGUUUUCUCCUGCUUUCUCAACAGCUCGCAGUCAAG	-0.0213
GGUCACGUCUCAAUCAACUCUAUUUCCAGGGAAAGCCCUGGCAUUUUCAACAGCUCGCAGUCAAG	0.0777
GGUCACGUCUCAAUCAACUCUACUUCAGGAGUUUUCUCCUGCAAUGUCAACAGCUCGCAGUCAAG	0.0913
GGUCACGUCUCAAUCAACUCUUUCUCCAGGGAAAACCCUGGUUUACUCAACAGCUCGCAGUCAAG	0.16
GGUCACGUCUCAAUCAACUCAACUCCCAGGGAAAACCCUGGCAUUCUCAACAGCUCGCAGUCAAG	-0.308
GGUCACGUCUCAAUCAACUCAAUGUCAGGAGUUUACUCCUGCUUUCUCAACAGCUCGCAGUCAAG	-0.0137
GGUCACGUCUCAAUCAACUCUAUCGAGGGGGGGAAAACCCCUUUACCCUCAUCAUCAACAGCUCGCAGUCAAG	-0.0498
GGUCACGUCUCAAUCAACUCUAUAGAGGGGGGGAAAACCCCUUUACCCUCACUUUCAACAGCUCGCAGUCAAG	-0.537
GGUCACGUCUCAAUCAACUCUUCGCCCAGGGAAAUCCCUGGUAUUCUCAACAGCUCGCAGUCAAG	-0.202
GGUCACGUCUCAAUCAACUCAUGUCCAGGAGUUUUCUCCUGCUUUUUCAACAGCUCGCAGUCAAG	-0.126
GGUCACGUCUCAAUCAACUCCAUCGAGGGGGGGAAAACCCCUUUACCCUCAUAUUCAACAGCUCGCAGUCAAG	0.0524
GGUCACGUCUCAAUCAACUCAACUUCCAGGGAAAGCCCUGGCAUAUUCAACAGCUCGCAGUCAAG	-0.121
GGUCACGUCUCAAUCAACUCUCCAGAGGGGGGGAAAACCCCUUUACCCUCAAUUUCAACAGCUCGCAGUCAAG	-0.452
GGUCACGUCUCAAUCAACUCAUCAGAGGGGGGGAAAACCCCUUUACCCUCAUCCUCAACAGCUCGCAGUCAAG	0.388
GGUCACGUCUCAAUCAACUCUAACGAGGGGGGGAAAACCCCUUUGCCCUCACAUUCAACAGCUCGCAGUCAAG	-0.0727
GGUCACGUCUCAAUCAACUCUCCGGAGGGGGGGAAAACCCCUUUACCCUCAAUAUCAACAGCUCGCAGUCAAG	-0.546

Sequence	binding signal (log2 fold change)
GGUCACGUCUCAAUCAACUCUAUCUCAGGAGUUUCCUCCUGCUAAUUCAACAGCUCGCAGUCAAG	0.238
GGUCACGUCUCAAUCAACUCCCCAGAGGGGGGGAAAACCCCUUUGCCCUCCAAAUCAACAGCUCGCAGUCAAG	0.00837
GGUCACGUCUCAAUCAACUCUAUCUCCAGGGAAACCCCUGGUAAACUCAACAGCUCGCAGUCAAG	-0.0437
GGUCACGUCUCAAUCAACUCUACUCCCAGGGAAAUCCCUGGCAAUCUCAACAGCUCGCAGUCAAG	-0.238
GGUCACGUCUCAAUCAACUCACAAGAGGGGGGGAAAACCCCUUUACCCUCGUAAUCAACAGCUCGCAGUCAAG	-0.00206
GGUCACGUCUCAAUCAACUCAAUCCCAGGAGUUUCCUCCUGCAUAGUCAACAGCUCGCAGUCAAG	0.225
GGUCACGUCUCAAUCAACUCAAUUCCAGGAGUUUACUCCUGCUAAUUCAACAGCUCGCAGUCAAG	0.043
GGUCACGUCUCAAUCAACUCAGUCUCCAGGGAAAACCCUGGCUUUCUCAACAGCUCGCAGUCAAG	-0.256
GGUCACGUCUCAAUCAACUCACUAGAGGGGGGGAAAACCCCUUUACCCUCCAUUUCAACAGCUCGCAGUCAAG	-0.153
GGUCACGUCUCAAUCAACUCAAUUCCCAGGGAAAACCCUGGUUAACUCAACAGCUCGCAGUCAAG	0.0469
GGUCACGUCUCAAUCAACUCUUCAGAGGGGGGGAAAACCCCUUUACCCUCCAAAUCAACAGCUCGCAGUCAAG	-0.358
GGUCACGUCUCAAUCAACUCAUCUUCCAGGGAAACCCCUGGUUAACUCAACAGCUCGCAGUCAAG	0.24
GGUCACGUCUCAAUCAACUCAAAAGAGGGGGGGAAAACCCCUUUGCCCUCACCAUCAACAGCUCGCAGUCAAG	-0.0463
GGUCACGUCUCAAUCAACUCAACUUCAGGAGUUUACUCCUGCUAUGUCAACAGCUCGCAGUCAAG	0.0449
GGUCACGUCUCAAUCAACUCCACAGAGGGGGGGAAAACCCCUUUACCCUCAACAUCAACAGCUCGCAGUCAAG	-0.181
GGUCACGUCUCAAUCAACUCCUUAGAGGGGGGGAAAACCCCUUUGCCCUCAUUUUCAACAGCUCGCAGUCAAG	-0.0324
GGUCACGUCUCAAUCAACUCUUCCUCAGGAGUUUUCUCCUGCAUUUUCAACAGCUCGCAGUCAAG	0.102
GGUCACGUCUCAAUCAACUCCCAGGAGGGGGGGAAAACCCCUUUACCCUCAGAAUCAACAGCUCGCAGUCAAG	-0.233
GGUCACGUCUCAAUCAACUCUACUUCAGGAGUUUACUCCUGCAAAUUCAACAGCUCGCAGUCAAG	-0.0232
GGUCACGUCUCAAUCAACUCGCACGAGGGGGGGAAAACCCCUUUACCCUCAUUAUCAACAGCUCGCAGUCAAG	0.0988
GGUCACGUCUCAAUCAACUCUUCCCCCAGGGAAAGCCCUGGUAAACUCAACAGCUCGCAGUCAAG	0.0508
GGUCACGUCUCAAUCAACUCUUCCUCCAGGGAAAUCCCUGGCAUACUCAACAGCUCGCAGUCAAG	0.00978
GGUCACGUCUCAAUCAACUCUAUUUCAGGAGUUUACUCCUGUUUUUUCAACAGCUCGCAGUCAAG	-0.0978
GGUCACGUCUCAAUCAACUCUUCUUCAGGAGUUUCCUCCUGCUUAUUCAACAGCUCGCAGUCAAG	0.0526
GGUCACGUCUCAAUCAACUCAAUCUCCAGGGAAAGCCCUGGCAUUUUCAACAGCUCGCAGUCAAG	0.0734

Sequence	binding signal (log2 fold change)
GGUCACGUCUCAAUCAACUCUAACGAGGGGGGGAAAACCCCUUUACCCUCAAAAUCAACAGCUCGCAGUCAAG	-0.0317
GGUCACGUCUCAAUCAACUCAAUCUCAGGAGUUUGCUCCUGCUUUUUCAACAGCUCGCAGUCAAG	0.276
GGUCACGUCUCAAUCAACUCAUACGAGGGGGGGAAAACCCCUUUACCCUCAACAUCAACAGCUCGCAGUCAAG	-0.658
GGUCACGUCUCAAUCAACUCUUAAGAGGGGGGGAAAACCCCUUUGCCCUCACCGUCAACAGCUCGCAGUCAAG	0.0238
GGUCACGUCUCAAUCAACUCCCACGAGGGGGGGAAAACCCCUUUACCCUCUCAUUCAACAGCUCGCAGUCAAG	0.296
GGUCACGUCUCAAUCAACUCUAAGGAGGGGGGGAAAACCCCUUUACCCUCAACAUCAACAGCUCGCAGUCAAG	0.128
GGUCACGUCUCAAUCAACUCAAUCCCAGGAGUUUUCUCCUGCUAUGUCAACAGCUCGCAGUCAAG	0.1
GGUCACGUCUCAAUCAACUCAGUUCCCAGGGAAAGCCCUGGCUUAUUCAACAGCUCGCAGUCAAG	-0.403
GGUCACGUCUCAAUCAACUCCUAAGAGGGGGGGAAAACCCCUUUGCCCUCACAAUCAACAGCUCGCAGUCAAG	0.0935
GGUCACGUCUCAAUCAACUCAUCCUCAGGAGUUUACUCCUGUUUAUUCAACAGCUCGCAGUCAAG	0.153
GGUCACGUCUCAAUCAACUCUAGUCCAGGAGUUUUCUCCUGUUAUUUCAACAGCUCGCAGUCAAG	-0.108
GGUCACGUCUCAAUCAACUCUCUAGAGGGGGGGAAAACCCCUUUGCCCUCAUCUUCAACAGCUCGCAGUCAAG	-0.202
GGUCACGUCUCAAUCAACUCAUCGUCCAGGGAAACCCCUGGCUUUUUCAACAGCUCGCAGUCAAG	-0.162
GGUCACGUCUCAAUCAACUCUUUCUCCAGGGAAAUCCCUGGUUAUGUCAACAGCUCGCAGUCAAG	0.126
GGUCACGUCUCAAUCAACUCAUCGCCAGGAGUUUACUCCUGCUUAUUCAACAGCUCGCAGUCAAG	-0.216
GGUCACGUCUCAAUCAACUCUAUCCCAGGAGUUUUCUCCUGCAAAUUCAACAGCUCGCAGUCAAG	0.0879
GGUCACGUCUCAAUCAACUCUUCUCCCAGGGAAAACCCUGGCAAACUCAACAGCUCGCAGUCAAG	0.00504
GGUCACGUCUCAAUCAACUCUAGUCCAGGAGUUUACUCCUGUAUAUUCAACAGCUCGCAGUCAAG	-0.234
GGUCACGUCUCAAUCAACUCAAUCCCAGGAGUUUUCUCCUGUAAUUUCAACAGCUCGCAGUCAAG	0.0213
GGUCACGUCUCAAUCAACUCAAUCCCCAGGGAAAUCCCUGGCUAACUCAACAGCUCGCAGUCAAG	0.107
GGUCACGUCUCAAUCAACUCUUCUCCAGGAGUUUUCUCCUGUUAACUCAACAGCUCGCAGUCAAG	0.166
GGUCACGUCUCAAUCAACUCUAUCUCCAGGGAAAGCCCUGGCAUUCUCAACAGCUCGCAGUCAAG	0.181
GGUCACGUCUCAAUCAACUCUAACGAGGGGGGGAAAACCCCUUUACCCUCAUAAUCAACAGCUCGCAGUCAAG	0.101
